Results taken from PMC6919601, “Identification of Plasmodium dipeptidyl aminopeptidase allosteric inhibitors by high throughput screening” (PLoS ONE, 2019).
Hit rate of the full screen: of about 110,000 compounds, about 230 (0.21%) showed an effect of 50% or more. The list shows a part of the results.

What follows are molecules tested against DPAP1 (Plasmodium falciparum, UniProt Q8IIJ9) (assay: primary screen, percent inhibition; read by cleavage of a fluorogenic dipeptide substrate; higher = more effect of the substance).
Chain of DPAP1 (Q8IIJ9 whole entry, looked up): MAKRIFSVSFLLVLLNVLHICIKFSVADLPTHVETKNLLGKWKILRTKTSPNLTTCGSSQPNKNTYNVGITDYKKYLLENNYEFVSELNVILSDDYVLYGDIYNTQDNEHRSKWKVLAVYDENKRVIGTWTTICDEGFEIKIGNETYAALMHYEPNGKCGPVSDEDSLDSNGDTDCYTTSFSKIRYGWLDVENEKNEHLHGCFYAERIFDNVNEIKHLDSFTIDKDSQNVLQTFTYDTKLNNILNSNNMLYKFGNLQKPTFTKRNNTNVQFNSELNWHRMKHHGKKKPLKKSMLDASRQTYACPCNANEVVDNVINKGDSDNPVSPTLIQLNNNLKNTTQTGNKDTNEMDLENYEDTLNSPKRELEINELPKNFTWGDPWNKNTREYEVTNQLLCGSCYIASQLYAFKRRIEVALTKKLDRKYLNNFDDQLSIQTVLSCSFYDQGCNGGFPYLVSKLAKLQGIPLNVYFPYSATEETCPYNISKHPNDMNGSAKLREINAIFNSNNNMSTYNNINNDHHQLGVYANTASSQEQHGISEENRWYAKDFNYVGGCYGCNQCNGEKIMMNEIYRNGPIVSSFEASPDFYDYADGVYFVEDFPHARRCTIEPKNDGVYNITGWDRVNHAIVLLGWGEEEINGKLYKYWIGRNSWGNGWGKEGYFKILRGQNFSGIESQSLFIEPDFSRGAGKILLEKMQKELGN
Set-up: species or system P. falciparum D10 trophozoite lysates; single well
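Note: 30 min substrate incubation versus DMSO and 10 µM JCP410 controls.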

SMILES | % Inhibition @ 10 uM [%]
CC(=O)NCCc1c[nH]c2ccc(OCc3ccccc3)cc12 | 1.29
CCn1c(CCNC(=O)c2ccco2)nc2ccccc21 | -4.95
O=C1CC(NC2CCN(c3ncc(C(F)(F)F)cc3Cl)CC2)C(=O)N1Cc1ccccc1 (stereo not shown) | 4.31
CCn1ccc(C(=O)NCc2ccc(C(=O)O)cc2)n1 | -0.67
CCOc1ccc(-c2nc(CSCC(=O)NC(C)CC)c(C)o2)cc1 (stereo not shown) | 5.28
O=C(Cn1ncc2c3ccccc3nc-2c1O)N1CCN(c2ccccn2)CC1 | 3.5
CCN(CC)C(=O)CSc1nc(O)cc(=O)n1-c1ccc(Cl)c(Cl)c1 | 4.09
COc1ccc(Br)cc1CNC(=O)C1CCCN(c2nc3ccccc3o2)C1 (stereo not shown) | 2.05
COc1ccccc1NC(=O)CCCc1ccccc1 | 4.22
CN(C)c1ccc(CN2CCN(c3ccc(Cl)cc3)CC2)cc1 | 3.01
CCOC(=O)C1=C(Sc2nnc3nc(C)cc(C)n23)NC(=O)NC1c1ccccc1 (stereo not shown) | 0.627
CC(C)(C)c1ccccc1OCCCN1CCCC1 | 5.03
CCN(CC)S(=O)(=O)c1cc(C(=O)Nc2ccc(Cl)cn2)ccc1C | -4.72
COc1cccc2c3c(c(O)nc12)CCC(C)(C)O3 | -1.04
O=C(CSc1ccc2nnc(CCNS(=O)(=O)c3ccccc3)n2n1)NC1CCCCC1 | -1.11
CCC1(CC)C(=O)N(C(=O)c2ccccc2)C(=O)N(C(=O)c2ccccc2)C1=O | -2.87
CCCCCCSc1nc(O)cc(=O)n1CC | 1.38
CC(=O)Nc1cccc(NC(=O)Cc2ccccc2)c1 | 3.03
COC(=O)c1cc(OC)c(OC)cc1NC(=O)c1ccccc1 | -0.128
COc1ccc(-c2cc(C)no2)cc1S(=O)(=O)N1CCN(c2ccccn2)CC1 | 2.74
O=C(COc1cccc2ccccc12)Nc1ccc(Cl)cc1 | 1.96
Cc1nc2ccccc2n1CCc1nc2c3ccccc3nc(NC3CCCCC3)n2n1 | -4.21
COc1ccc(OC)c(C2C(C(=O)c3ccc4c(c3)OCCO4)=C(O)C(=O)N2CCN(C)C)c1 (stereo not shown) | -6.2
COC(=O)c1sccc1S(=O)(=O)N1CCOCC1 | 1.97
CC(C)(C)OC(=O)N1CCC(C(N)=O)CC1 | 2.39
Cc1nc2c(-c3ccc(F)cc3)c(C)nn2c(C)c1CCC(=O)NC(C)c1ccc2c(c1)OCCO2 (stereo not shown) | 2.93

SMILES | % Inhibition @ 10 uM [%]
COc1ccc(Cn2ccc3nc(C)c(C(=O)N4CCN(c5ncccn5)CC4)cc3c2=O)cc1 | 2.48
COc1ccc(C(=O)Nc2ccc(Cl)cc2C(=O)NCc2ccco2)cc1 | -4.39
COC(=O)c1ccc(C(=O)N(CCCN(C)C)c2nc3c(F)cc(F)cc3s2)cc1 | -0.578
COc1ccc(OC)c(/C=C2/N=C(c3cccc(Cl)c3Cl)OC2=O)c1 | -19.2
O=C(Nc1cccc(Cl)c1)c1ccco1 | -2.63
Cc1ccc(NC(=O)c2c(C)nc(Nc3nc4ccccc4o3)nc2C)cc1 | 5.66
Cc1ccc(NC(=O)CN2C(=O)S/C(=C\c3cccc(O)c3)C2=O)cc1 | 2.37
CC(=O)NCc1nc2ccccc2n1Cc1ccccc1F | 1.23
CCOC(=O)C(=O)Nc1sc2c(c1C(=O)OCC)CC(C)(C)OC2 | -3.06
COCCNC(=O)CN1N=C(c2ccccc2)CCC1=O | 6.86
Cc1n[nH]c(C)c1N1C(=O)c2cccc3cc(Br)cc(c23)C1=O | -1.44
CS(=O)(=O)N1CCC(C(=O)NCc2ccccc2Cl)CC1 | 1.88
CC1CN(S(=O)(=O)c2ccccc2)C(C)CN1S(=O)(=O)c1ccccc1 (stereo not shown) | -6.29
CCOC(=O)c1cnc2cc(Cl)c(OC)cc2c1NCC1CCCO1 (stereo not shown) | 0.231
Cc1cccc(CSc2nnc(C)n3c2cc2sccc23)c1 | 3.61
COc1ccc(/C=C\c2onc(C)c2S(=O)(=O)N2CCC(C(=O)NCc3ccco3)CC2)cc1 | 0.458
CCCOC(=O)CSc1nc(C)cc(C)c1C#N | 1.13
CC(C)=CCC[C@H](C)CCN1CCN(C/C=C/c2ccccc2)CC1 | -3.15
O=C(Cc1ccccc1)Nc1ccc(S(=O)(=O)N2CCOCC2)cc1 | 2.64
N=C(NOC(=O)c1ccccc1F)c1cccnc1 | 6.59
CC1CCc2c(sc3nc(-c4cc5ccccc5oc4=O)nc(O)c23)C1 (stereo not shown) | 0.372
CCOc1ccccc1C(=O)Nc1nc2ccc(C)cc2s1 | -0.28
CCC(=O)Nc1ccc2c(C)cc(O)nc2c1 | -5.54
CC1CCC2C(=O)N(c3ccccc3Cl)C(=O)C2C1 (stereo not shown) | -9.24
COc1ccc(C2OCC3(CO2)SC(N)=NC3=O)cc1OC (stereo not shown) | 2.73
COc1cc(CN2CCc3ccccc3C2)cc(OC)c1O | -0.969
